# Laboratory results: PubChem BioAssay AID624296 (National Center for Advancing Translational Sciences (NCATS), 2012)
# Screen size: about 350,000 compounds; about 9,900 (2.8%) were called active. This list was built around the results that the source calls inconclusive (neither active nor inactive); the mix of calls is not that of the screen. Calls come from the whole dose curve; as a rule, active = well fitted activation curve with a large enough effect; inconclusive = small, poorly fitted or top-dose-only effect; inactive = no such curve, though single readings can be large or run the other way. No potency is given beside an inconclusive call; the fits are too rough.
# Experiment: A quantitative high throughput screen for small molecules that induce DNA re-replication in MCF 10a normal breast cells. Note: nearly all actives have a fitted effect of over 50% in size.
# Conditions: MCF 10A DNA re-replication, Hoechst nuclear intensity, 48 h; series mostly up to 46.1 µM
# Potency is the fitted concentration of half-maximal effect; tags give direction and shape of the fitted curve.
row,SMILES,Potency
1,CCOC(=O)N1CCC(NCCNC(=O)c2ccc(F)c(F)c2)CC1,inactive
2,O=S(=O)(Nc1ccc(F)cc1Cl)c1ccc(-c2cnc(C3CC3)o2)cc1,active: 1.03 µM
3,Cc1ccc(/C=C/C(=O)Nc2sc3c(c2C#N)CCCC3)o1,"inconclusive [activator, full curve]"
4,CC(C)CN1CCN(CCCOC(=O)Nc2cccc3ccccc23)CC1C (configuration not stated),"inconclusive [activator, single point]"
5,CN(C1=C(N2CCOCC2)C(=O)c2ccccc2C1=O)c1ccccc1,inactive
6,CN(C(=O)c1cccc(NC(=O)Cc2ccc(NC(=O)C3CCCN(C(=O)C4CCCCC4)C3)cc2)c1)C1CCC1 (configuration not stated),"inconclusive [activator, partial curve, poor fit]"
7,CCOC(=O)c1ccccc1NC(=O)CSc1nnc(C)c(=O)[nH]1,"inconclusive [activator, partial curve, poor fit]"
8,CC(C)=CCC/C(C)=C/COc1ccc2ccc(=O)oc2c1,"inconclusive [activator, partial curve, poor fit]"
9,COC(=O)c1c(NC(=O)c2ccc(C)c(S(=O)(=O)Nc3ccccc3C)c2)sc2c1CCCC2,"inconclusive [activator, single point]"
10,Cc1ccc(S(=O)(=O)NN2C(=O)/C(=C/c3cccc(F)c3)SC2=S)cc1,"inconclusive [activator, single point]"
11,CCNc1ccccc1CP(=O)(c1ccccc1)c1ccccc1O (configuration not stated),"inconclusive [activator, single point]"
12,COc1ccc2cc(-c3[nH]ncc3CN3CCCN(c4ccccc4)CC3)ccc2c1,"inconclusive [activator, single point]"
13,O=C(Cc1csc(-c2ccccc2)n1)NCc1ccccc1F,"inconclusive [activator, partial curve, poor fit]"
14,CCc1nnc(NC(=O)CSc2nc3c(cc2C#N)CCCC3)s1,inactive
15,CNS(=O)(=O)c1ccc2nc(NC(=O)/C=C/c3ccco3)sc2c1,"inconclusive [activator, single point]"
16,Cc1nc(CC(=O)Nc2nc(C(C)(C)C)cs2)cs1,inactive
17,O=C(OCc1nnc(-c2ccccc2)o1)c1ccc(S(=O)(=O)NCc2ccco2)cc1,"inconclusive [activator, full curve, poor fit]"
18,CN(C)c1cnn(-c2ccccc2)c(=O)c1Cl,inactive
19,O=c1[nH]c(CSc2nc3ccccc3o2)nc2c1cnn2-c1ccccc1,"inconclusive [activator, single point]"
20,CS(=O)(=O)N(CC(=O)N/N=C/c1ccccc1C(=O)O)c1cccc(Cl)c1Cl,inactive
21,COc1ccc(C)cc1NC(=O)CSc1ccc(-c2ccccn2)nn1,"inconclusive [activator, partial curve, poor fit]"
22,CCOc1ccc(C(C)=O)cc1N1C(=O)C2C(C1=O)C1C=CC2C12CC2 (configuration not stated),inactive
23,Cc1cc(C(=O)NCC(=O)Nc2ccc(F)c(F)c2)c(C)o1,inactive
24,Cc1ccc(/C=C2/SC(=S)N(CCCC(=O)Nc3ccc(O)cc3)C2=O)cc1,"inconclusive [activator, single point]"

row,SMILES,Potency
1,CCOc1ccc(NS(=O)(=O)c2cc(OC)ccc2OC)cc1,inactive
2,COc1ccc(Cn2c(C)c(C)c(C#N)c2NC(=O)Nc2cccc(C)c2)cc1,"inconclusive [activator, single point]"
3,Cc1cccc(/C=C/c2onc(C)c2[N+](=O)[O-])n1,active: 7.31 µM
4,O=C(/C=C/c1ccco1)Nc1ccc(N2CCCC2)cc1,inactive
5,COC(=O)N1C(=O)[C@](CC(C)C)(c2ccccc2)N1C(=O)OC,"inconclusive [activator, partial curve, poor fit]"
6,COc1cc(C2C3=C(COC3=O)OC(C)(C)Oc3cc4c(cc32)OCO4)cc(OC)c1OC (configuration not stated),active: 1.16 µM
7,COc1ccc(CCNC(=O)CCCn2c(=O)c3cccn3c3cccnc32)c(OC)c1OC,inactive
8,COc1ccc(CCC(=O)N/N=C(\C)c2ccc3c(c2)OCO3)cc1,inactive
9,CCOC(=O)C1C(C(=O)Nc2cccc(C(F)(F)F)c2)C1C(=O)NC(C)C (configuration not stated),inactive
10,CCOC(=O)c1ccc(-c2c(-c3ccccc3OC)sc3ccc(OC)cc23)cc1F,"inconclusive [activator, full curve, poor fit]"
11,C=C(C)Cn1cnc2cc(C)c(C)cc21,inactive
12,CC(C)(C)N(Cc1ccccc1)C(=O)COC(=O)c1ccc(N2CCCC2=O)cc1,"inconclusive [activator, partial curve, poor fit]"
13,COc1ccc2c(c1)[nH]c1c(N3CCSCC3)ncnc12,"inconclusive [activator, single point]"
14,Cn1nc(C(F)(F)F)c(/C=N/OC(=O)c2ccccc2Cl)c1SCc1ccc(Cl)cc1,"inconclusive [activator, partial curve, poor fit]"
15,COc1cccc(CNC(=O)CCC(=O)N2CCOCC2)c1,inactive
16,CN(C)C(=O)CCc1ccc2c3c([nH]c2c1)[C@]1(C)[C@@H](C(=O)N2CCCCC2)C[C@H](CC(=O)NCc2cccc(C(F)(F)F)c2)C(=O)N1CC3,"inconclusive [activator, partial curve, poor fit]"
17,OCc1ccc(O)c2ncccc12,"inconclusive [activator, single point]"
18,COc1ccc(-c2n[nH]c(=S)n2-c2ccc(Br)cc2)cc1OC,inactive
19,COc1ccc(N2CCCC2)c(NC(=O)c2ccc([N+](=O)[O-])o2)c1,"inconclusive [activator, single point]"
20,Cn1c(/C=C/N2CCOCC2)c(C(=O)c2ccc(Br)cc2)c(=O)n(C)c1=O,"inconclusive [activator, partial curve, poor fit]"
21,CC(O)CC(C(=O)NNc1ccccc1)C(=O)NNc1ccccc1 (configuration not stated),"inconclusive [activator, single point]"
22,COCC(=O)Nc1ccc(OC)c(Cl)c1,inactive
23,CCCCNC(=O)C(C#N)c1nc2ccccc2nc1N1CCN(Cc2ccc3c(c2)OCO3)CC1 (configuration not stated),"inconclusive [activator, full curve]"
24,CCOc1cc(CNC2CCCC2)cc(Cl)c1OCc1ccccc1,"inconclusive [activator, single point]"

row,SMILES,Potency
1,CN(C)c1ccc(/C=N/NC(=O)c2ccccc2Cl)cc1,active: 20.6 µM
2,Clc1cccc(-c2ccc(C=Nc3ccc(N4CCOCC4)cc3)o2)c1Cl,active: 20.6 µM
3,CCN(CC)c1ccc(/C=N/N=C(N)N)c(O)c1,active: 4.11 µM
4,Cc1cc2ccccc2n2c(SCC(=O)N3CCc4ccccc4C3)nnc12,inactive
5,O=S(=O)(c1ccccc1)N1CCN(c2nnnn2-c2ccccc2)CC1,"inconclusive [activator, single point]"
6,O=C(O)c1ccc(/C=N/Nc2ccc(C(F)(F)F)cn2)cc1,active: 11.6 µM
7,O=C(Nc1ccc2c(c1)OCO2)c1cccc(F)c1,inactive
8,O=C(Nc1cccc2cccnc12)c1ccccc1Cl,"inconclusive [activator, single point]"
9,O=C1CCc2cc(NS(=O)(=O)c3ccc(Cl)cc3)cc3c2N1CC3,inactive
10,O=C1/C(=C/c2cccs2)SC(=S)N1c1cccc(O)c1,"inconclusive [activator, single point]"
11,CCOC(=O)COc1ccc(Br)cc1/C=C\c1[nH]c(=O)[nH]c(=O)c1[N+](=O)[O-],active: 8.2 µM
12,O=S(=O)(Nc1ncccn1)c1ccc(Cl)cc1,inactive
13,NC(C(=O)O)C1ON=C(Cl)C1O (configuration not stated),inactive
14,O=C1NC(SCCCF)=N/C1=C/c1ccc(-n2cncn2)cc1,"inconclusive [activator, single point]"
15,Cc1cc(C(=O)N/N=C/c2cccn2C)n[nH]1,"inconclusive [activator, partial curve, poor fit]"
16,c1ccc2sc(-c3ccc4c(c3)OCO4)nc2c1,"inconclusive [activator, partial curve, poor fit]"
17,C/C(=N\NS(=O)(=O)c1ccc(C(C)(C)C)cc1)c1ccccc1,"inconclusive [activator, single point]"
18,Cc1sc2ncnc(N3CCC(C(=O)Nc4ccc(OC(F)F)c(Cl)c4)CC3)c2c1C,"inconclusive [activator, single point]"
19,COCCSc1ccccc1C(=O)Nc1nnc(C)s1,"inconclusive [activator, full curve]"
20,O=c1[nH]c2cc3c(cc2cc1CN(Cc1ccco1)C(=S)NCC1CCCO1)OCCO3 (configuration not stated),"inconclusive [activator, partial curve, poor fit]"
21,NC(N)=N/N=C(\N=Nc1ccccc1)c1ccc(Cl)cc1,"inconclusive [activator, single point]"
22,CN(C)c1ccc(/C=N/n2c(C3CCCCC3)n[nH]c2=S)cc1,"inconclusive [activator, partial curve, poor fit]"
23,Cc1ccc(-n2ccnc(SCC(=O)NC3CCCCC3)c2=O)cc1F,"inconclusive [activator, partial curve, poor fit]"
24,COc1ccccc1C1CC(c2ccccc2)Nc2ncnn21 (configuration not stated),"inconclusive [activator, single point]"
